Measured values from PMC9619224.
These are yes or no findings as the source states them, for the method shown. In cells and extracts the contact can be indirect. Some entries that bind do so weakly or less than the wild type.

By UniProt entry, the sequences of proteins in these tests, tags left out. Residues count along the entry.
UniProt Q923Z0, residues 29-410: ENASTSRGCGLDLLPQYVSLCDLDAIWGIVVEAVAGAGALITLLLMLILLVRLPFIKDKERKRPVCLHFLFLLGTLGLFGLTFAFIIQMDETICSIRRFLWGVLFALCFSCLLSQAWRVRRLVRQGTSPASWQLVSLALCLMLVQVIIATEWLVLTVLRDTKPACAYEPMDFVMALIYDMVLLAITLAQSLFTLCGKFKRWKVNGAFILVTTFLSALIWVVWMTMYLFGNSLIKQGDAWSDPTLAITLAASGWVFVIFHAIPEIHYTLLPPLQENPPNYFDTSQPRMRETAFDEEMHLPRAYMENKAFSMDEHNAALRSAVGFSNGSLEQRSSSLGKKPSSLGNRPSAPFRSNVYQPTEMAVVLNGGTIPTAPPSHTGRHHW
UniProt P61793: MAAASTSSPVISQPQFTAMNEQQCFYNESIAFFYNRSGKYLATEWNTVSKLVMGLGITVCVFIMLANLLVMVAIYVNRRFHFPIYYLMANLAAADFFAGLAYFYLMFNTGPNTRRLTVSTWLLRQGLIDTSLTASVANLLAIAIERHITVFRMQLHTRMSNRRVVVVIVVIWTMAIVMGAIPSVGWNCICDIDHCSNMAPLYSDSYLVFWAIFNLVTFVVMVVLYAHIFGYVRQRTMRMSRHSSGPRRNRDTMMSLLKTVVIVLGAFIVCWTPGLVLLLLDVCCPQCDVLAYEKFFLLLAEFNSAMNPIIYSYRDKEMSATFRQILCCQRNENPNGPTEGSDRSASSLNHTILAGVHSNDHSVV
UniProt Q8BZ39: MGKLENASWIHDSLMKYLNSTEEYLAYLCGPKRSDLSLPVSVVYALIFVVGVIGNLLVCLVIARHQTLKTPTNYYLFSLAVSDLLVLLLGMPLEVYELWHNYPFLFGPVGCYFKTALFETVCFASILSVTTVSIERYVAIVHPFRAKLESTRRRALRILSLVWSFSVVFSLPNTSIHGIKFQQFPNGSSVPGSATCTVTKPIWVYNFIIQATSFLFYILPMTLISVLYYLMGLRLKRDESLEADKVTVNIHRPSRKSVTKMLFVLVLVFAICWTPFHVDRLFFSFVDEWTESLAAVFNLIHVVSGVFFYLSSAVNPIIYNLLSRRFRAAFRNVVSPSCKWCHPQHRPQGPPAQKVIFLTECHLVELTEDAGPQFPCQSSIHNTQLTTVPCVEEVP
UniProt E9Q468: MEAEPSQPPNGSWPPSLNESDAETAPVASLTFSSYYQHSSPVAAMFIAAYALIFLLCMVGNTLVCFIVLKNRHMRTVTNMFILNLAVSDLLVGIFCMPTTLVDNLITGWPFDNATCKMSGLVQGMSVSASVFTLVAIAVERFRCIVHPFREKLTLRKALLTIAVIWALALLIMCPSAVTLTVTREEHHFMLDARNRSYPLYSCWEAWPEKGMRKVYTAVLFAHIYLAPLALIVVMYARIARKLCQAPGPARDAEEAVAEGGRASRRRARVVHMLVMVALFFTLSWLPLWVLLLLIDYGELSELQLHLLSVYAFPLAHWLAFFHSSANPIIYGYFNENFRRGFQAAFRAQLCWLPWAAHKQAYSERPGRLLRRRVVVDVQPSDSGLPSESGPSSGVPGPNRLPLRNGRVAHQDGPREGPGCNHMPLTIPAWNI
UniProt Q04573: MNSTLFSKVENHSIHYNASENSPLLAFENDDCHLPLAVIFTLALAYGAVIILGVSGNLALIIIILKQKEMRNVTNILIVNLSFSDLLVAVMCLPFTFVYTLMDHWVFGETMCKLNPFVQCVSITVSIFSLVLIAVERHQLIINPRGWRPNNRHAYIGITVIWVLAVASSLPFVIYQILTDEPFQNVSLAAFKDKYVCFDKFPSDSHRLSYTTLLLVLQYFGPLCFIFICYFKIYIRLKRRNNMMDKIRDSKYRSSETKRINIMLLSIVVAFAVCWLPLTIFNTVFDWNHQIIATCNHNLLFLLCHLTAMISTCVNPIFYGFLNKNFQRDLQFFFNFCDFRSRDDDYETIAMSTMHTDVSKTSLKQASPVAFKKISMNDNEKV
UniProt Q9JKL1: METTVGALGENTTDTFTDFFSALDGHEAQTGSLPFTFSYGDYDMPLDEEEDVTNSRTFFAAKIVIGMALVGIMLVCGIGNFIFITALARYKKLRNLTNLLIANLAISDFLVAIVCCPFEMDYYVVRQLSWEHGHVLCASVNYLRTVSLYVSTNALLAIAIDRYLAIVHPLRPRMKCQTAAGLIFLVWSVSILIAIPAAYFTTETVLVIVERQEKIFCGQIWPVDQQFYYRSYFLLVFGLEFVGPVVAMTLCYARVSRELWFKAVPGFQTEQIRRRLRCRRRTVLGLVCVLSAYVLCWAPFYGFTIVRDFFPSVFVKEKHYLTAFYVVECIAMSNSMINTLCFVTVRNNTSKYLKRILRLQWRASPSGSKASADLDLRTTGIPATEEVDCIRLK

What was measured:
Assay in all cases: co-IP; HEK293T cells transfected with 3xHA-GPCR and 2xFlag-MRAP1 or MRAP2; GPCR immunoprecipitated with rabbit anti-HA, Protein A/G agarose, overnight at 4°C; MRAP detected by mouse anti-Flag blot
[1] = target: T1, Calcitonin receptor (mouse) (UniProt Q60755)
T1 sequence: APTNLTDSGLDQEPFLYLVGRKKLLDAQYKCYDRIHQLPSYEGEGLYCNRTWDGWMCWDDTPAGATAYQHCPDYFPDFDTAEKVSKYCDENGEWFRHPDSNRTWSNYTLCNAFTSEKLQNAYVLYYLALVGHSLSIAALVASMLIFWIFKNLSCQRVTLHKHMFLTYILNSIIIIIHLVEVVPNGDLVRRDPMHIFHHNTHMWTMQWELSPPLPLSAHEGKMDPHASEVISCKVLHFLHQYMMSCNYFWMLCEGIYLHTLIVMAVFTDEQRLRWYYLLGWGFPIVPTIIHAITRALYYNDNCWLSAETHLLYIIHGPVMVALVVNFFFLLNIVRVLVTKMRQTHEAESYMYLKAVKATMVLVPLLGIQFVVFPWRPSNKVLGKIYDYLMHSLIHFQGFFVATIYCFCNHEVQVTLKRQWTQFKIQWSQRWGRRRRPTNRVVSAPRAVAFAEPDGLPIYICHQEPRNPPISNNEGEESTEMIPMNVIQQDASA

[2] = target: G protein‐coupled receptor, family C, group 5, member B (mouse) (UniProt Q923Z0)
[3] = target: T2, Gastric inhibitory polypeptide receptor (mouse) (UniProt Q0P543)
T2 sequence: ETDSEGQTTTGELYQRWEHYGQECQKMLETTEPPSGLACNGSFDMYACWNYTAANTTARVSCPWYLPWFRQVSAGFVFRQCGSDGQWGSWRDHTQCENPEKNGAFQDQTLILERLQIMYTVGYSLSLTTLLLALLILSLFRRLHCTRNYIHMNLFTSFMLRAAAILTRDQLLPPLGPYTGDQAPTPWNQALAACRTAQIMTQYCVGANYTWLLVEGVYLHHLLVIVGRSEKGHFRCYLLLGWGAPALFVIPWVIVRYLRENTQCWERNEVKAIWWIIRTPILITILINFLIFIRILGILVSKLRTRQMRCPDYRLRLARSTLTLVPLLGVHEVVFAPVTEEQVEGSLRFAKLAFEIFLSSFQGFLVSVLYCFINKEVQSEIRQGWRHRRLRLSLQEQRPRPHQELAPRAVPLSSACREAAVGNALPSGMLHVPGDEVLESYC

[4] = target: Lysophosphatidic acid receptor 1 (mouse) (UniProt P61793)
[5] = target: Neuromedin U receptor 2 (mouse) (UniProt Q8BZ39)
[6] = target: Neuropeptide FF receptor 1 (mouse) (UniProt E9Q468)
[7] = target: Neuropeptide Y receptor Y1 (mouse) (UniProt Q04573)
[8] = target: Prokineticin receptor 1 (mouse) (UniProt Q9JKL1)
[9] = target: T3, Prolactin releasing hormone receptor (mouse) (UniProt Q6VMN6)
T3 sequence: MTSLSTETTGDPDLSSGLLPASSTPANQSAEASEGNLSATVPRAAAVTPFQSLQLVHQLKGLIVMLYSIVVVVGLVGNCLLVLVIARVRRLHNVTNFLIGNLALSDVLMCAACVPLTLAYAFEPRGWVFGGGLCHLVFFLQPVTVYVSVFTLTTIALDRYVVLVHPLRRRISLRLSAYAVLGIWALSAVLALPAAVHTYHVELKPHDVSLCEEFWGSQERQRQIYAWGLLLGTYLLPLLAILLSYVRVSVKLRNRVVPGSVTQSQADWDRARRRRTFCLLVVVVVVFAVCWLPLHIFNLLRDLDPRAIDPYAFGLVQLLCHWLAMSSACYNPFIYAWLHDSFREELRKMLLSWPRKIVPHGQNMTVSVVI

[10] = target: T4, Somatostatin receptor 5 (mouse) (UniProt O08858)
T4 sequence: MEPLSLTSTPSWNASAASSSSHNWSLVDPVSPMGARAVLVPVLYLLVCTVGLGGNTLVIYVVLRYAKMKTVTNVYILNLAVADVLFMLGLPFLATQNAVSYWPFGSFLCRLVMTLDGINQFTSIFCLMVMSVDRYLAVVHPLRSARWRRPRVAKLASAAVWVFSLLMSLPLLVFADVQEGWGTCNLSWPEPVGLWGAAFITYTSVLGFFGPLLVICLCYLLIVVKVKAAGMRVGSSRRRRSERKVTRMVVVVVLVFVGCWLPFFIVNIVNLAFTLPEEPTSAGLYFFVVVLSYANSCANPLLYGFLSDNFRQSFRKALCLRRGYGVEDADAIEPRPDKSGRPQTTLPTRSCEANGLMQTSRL

Measured: binding

B1: melanocortin receptor accessory protein MRAP1 (protein, UniProt Q9D159 1-127)
chain: MANGTDASVPLTSYEYYLDYIDLIPVDEKKLKANKHSIVIALWLSLATFVVLLFLILLYMSWSGSPQMRHSPQPQPICSWTHSFNLPLCLRRASLQTTEEPGRRAGTDQWLTQQSPSASAPGPLALP
binds: all assays above

B2: melanocortin receptor accessory protein MRAP2 (protein, UniProt D3Z1Q2 1-207)
chain: MEMSAQRLASNRTSPQSPSNSDYTWEYEYYEIGPVSFEGLKAHKYSIVIGFWVGLAVFVIFMFFVLTLLTKTGAPHQDNAESSERRFRMNSFVSDFGKPLESDKVFSRQGNEESRSLFHCYINEVEHLDRVKVCHQTTAIDSDVHLQEASRSSGRPEEELARFMKFDIPNFVNTEQSSFGEDDLLISEAPVLLENKPVSQTSRIDLD
binds: all assays above
